# In article PMC5515408:
# This is one part of the list. At the low end of the ranking the order means little.
# Test system: MYC (p64) + MAX (p21), in MYC:MAX
# Test: protein-binding microarray (anti-MAX antibody)
# Conditions: PBM: 15 mM Tris-HCl pH 7.5, 100 mM KCl, 0.075% NP40, 7.5 mM beta-mercaptoethanol, 375 ng/ul BSA, 8 ng/ul poly(dA-dT):(dA-dT), 550 ng complex, 60 min, room …; high values mean tight binding; double strand, one strand shown; sequences stand for … in CCGGC…TTAATAGCTAAGATTACTATATCGACG
row,Sequence,binding signal (log2 normalized fluorescence)
1,TGACTAGAAGTA,-0.0985
2,TGACAGTAGGTA,0.0916
3,TGACCGAGTGTA,0.203
4,TGACGCTCCGTA,0.159
5,TGGCACCTGGTT,0.342
6,TGAACTGCCGTA,-0.0474
7,GCGCACGTGGTA,0.813
8,TGACAAACTGTA,0.119
9,TGAGTCCTGGTA,-0.105
10,TGATCACAAGTA,0.151
11,TGATTTTTTGTA,-0.164
12,CGACACGTGTTA,0.999
13,TGAGCGTAGGTA,-0.0841
14,TGAGGGTGGGTA,0.446
15,TGAGACGGGGTA,0.303
16,TGAGCGAGAGTA,-0.00783
17,TGATCGAATGTA,0.0168
18,TGATGTTATGTA,-0.0198
19,TGAGTGATGGTA,0.199
20,TGAGCACGTGTA,0.769
21,TGATCGGAAGTA,-0.0273
22,TGAACACGCGTA,0.448
23,TGACAAGGCGTA,0.0204
24,TGAAAACTAGTA,-0.0565
25,TGAACTGGTGTA,0.122

row,Sequence,binding signal (log2 normalized fluorescence)
1,TGATTCATTGTA,0.0737
2,TGATGGTGTGTA,0.317
3,TGAGCGCTCGTA,0.0385
4,TGAGTTTTGGTA,-0.201
5,TGACTTGACGTA,0.101
6,TGACAATACGTA,0.229
7,TGAGCTGGCGTA,-0.00689
8,TGATCGGATGTA,0.0998
9,TGACGATGAGTA,0.0347
10,TGATAGCTCGTA,-0.122
11,TGAATACACGTA,0.295
12,TGAAACGTGGGA,0.648
13,TGATGAGACGTA,-0.0198
14,TGACACTCGGTA,0.448
15,TGAGGTAGAGTA,-0.164
16,TGAACTCCAGTA,0.0204
17,TGACGCTTAGTA,0.169
18,TGACCAGCAGTA,0.146
19,TGCCACCTGGTA,0.461
20,GGACACGCGGTA,0.807
21,TGATAGGCGGTA,-0.217
22,TGATGCACGGTA,0.253
23,TGACACGTGGAC,0.734
24,TGATGCGAGGTA,0.373
25,TGACTATACGTA,0.0059

row,Sequence,binding signal (log2 normalized fluorescence)
1,TGACGGGTTGTA,0.0959
2,TGACACCTGGGA,0.49
3,TGACCCCATGTA,0.544
4,TGATACGTGGCA,0.305
5,GTAGGTAAATCA,-0.0998
6,TGAACTAACGTA,0.103
7,TGAAAGGGGGTA,0.83
8,TTCGTCCAAGGC,-0.0761
9,TGATGCCTGGTA,0.0849
10,TGAATTTTCGTA,-0.0241
11,TGATCGTAAGTA,-0.144
12,TGAGGGATAGTA,0.0576
13,TGACCCTTCGTA,-0.0205
14,TGACACGTTATA,0.451
15,TGACCCGTGGTC,0.399
16,TGATCTACAGTA,-0.0994
17,TGACCCACCGTA,0.288
18,TGACATACTGTA,0.287
19,TGATGGAAAGTA,0.164
20,TGATCAGCGGTA,-0.0394
21,TGACGGATGGTA,0.302
22,TGACCTGTAGTA,0.206
23,TGAAGAACGGTA,-0.00293
24,GGCCACGTGGTA,0.783
25,TGACATAATGTA,0.057

row,Sequence,binding signal (log2 normalized fluorescence)
1,TGATGAGGCGTA,-0.125
2,TGAGGAATTGTA,-0.116
3,TGATGCGATGTA,0.156
4,TGACGACCCGTA,0.383
5,TGATTTGGGGTA,0.096
6,TGAAAAAAGGTA,0.0166
7,TTGCACTTGGTA,0.318
8,TGACTTGTTGTA,0.106
9,TGAGTAGTTGTA,0.0211
10,TGAGGCTCAGTA,0.135
11,TGAAAAGCTGTA,0.155
12,TGAGAGCTGGTA,-0.00588
13,TGAAAACGAGTA,0.118
14,TGATTGCTCGTA,0.0285
15,TGACCAACAGTA,0.114
16,TGAAGCGATGTA,0.265
17,TGAGCCCTTGTA,-0.0794
18,TGGGTCGTGGTA,0.0754
19,TGAGCAATAGTA,0.0885
20,TGACTTGTGGTA,0.286
21,TGACATATAGTA,-0.0684
22,TGAGGCCGTGTA,0.155
23,TGAGTAATGGTA,0.0707
24,TATCACGTGGGA,0.804
25,TGAGGGCCCGTA,0.0858

row,Sequence,binding signal (log2 normalized fluorescence)
1,TGATTTTAAGTA,0.00855
2,TGATTCCTGGTA,-0.0648
3,TGAACTCCTGTA,0.19
4,TGAAGAGTTGTA,0.0698
5,TGAATTGTGGTA,0.192
6,TGAGATCCTGTA,0.0331
7,GCACACGTGGTA,0.906
8,TGACACGACGTA,0.301
9,TGAACATACGTA,0.202
10,TGAGGGCCAGTA,0.0101
11,TGAGGGCATGTA,0.342
12,TCGGTCTTCCTC,-0.312
13,TGACGGAATGTA,0.12
14,TGACCCTGTGTA,0.121
15,TGAATACTCGTA,0.00762
16,TGATGGTGCGTA,0.0914
17,TTCTTTATCACG,0.329
18,TGAAACAGAGTA,0.0767
19,TGATAGTCAGTA,-0.00805
20,TGAAGGTGGGTA,0.328
21,TGATTTGATGTA,-0.229
22,TGAGGCAAGGTA,0.281
23,TGAGCTTTGGTA,-0.2
24,TGGCACACGGTT,0.419
25,TGAACCGCGGTA,0.103

row,Sequence,binding signal (log2 normalized fluorescence)
1,CAATGTCTTAAC,0.198
2,TGACGTTCCGTA,0.0698
3,TGAGGGCTTGTA,0.0447
4,CTTCTCTGTCTC,-0.175
5,TGATTGCCGGTA,-0.021
6,TGAATGAACGTA,0.158
7,TGACACGTGCCG,0.783
8,TGACGATCCGTA,0.113
9,TCGTACGTGGTA,0.376
10,GTTCACGTGGTA,0.664
11,TGACCTGTCGTA,0.112
12,TCAAACATGGTA,0.362
13,TGATCTCACGTA,0.19
14,TGACCGGGAGTA,-0.00879
15,TGATCAAATGTA,0.101
16,TGATGTAGAGTA,-0.0941
17,TCACATGTGTTA,0.76
18,TGACCAATTGTA,0.0589
19,TGAGATACGGTA,-0.0397
20,TGATGTTCCGTA,0.196
21,TGAAACTTTGTA,-0.0223
22,TGACACGAGGTA,0.625
23,TGAATTCAGGTA,0.0452
24,TGACACGTGGAT,0.893
25,TGACACGTTGTA,0.534

row,Sequence,binding signal (log2 normalized fluorescence)
1,TAAGACTTGGTA,-0.0121
2,TGATAGTTGGTA,-0.284
3,TGATGTGGGGTA,0.239
4,TGACCACTCGTA,0.235
5,TGACAAACCGTA,0.206
6,TGAGAACTTGTA,-0.0261
7,TGAGAGGCGGTA,-0.0427
8,TGATCAATAGTA,0.00347
9,TGACACGTAGCT,0.399
10,TGAGCCCTAGTA,-0.0652
11,TGATGTGCGGTT,0.225
12,TGAGTATGCGTA,0.0402
13,TAACACCTGGTG,0.558
14,TGACAGACGGTA,0.133
15,TGAACAGTGGTA,-0.00322
16,GCTGACGCGGTT,0.13
17,TGACTCGTGGTA,0.557
18,TGACCCGGAGTA,0.0794
19,TGACACATGCAA,0.632
20,TGATCCAGCGTA,-0.0541
21,TGAGTATTTGTA,-0.123
22,TGAGGCTGAGTA,-0.0865
23,TGAAGTGCGGTA,0.348
24,TGATGTAGTGTA,0.0973
25,TGACTGTAAGTA,-0.0155
